PubChem BioAssay AID2202238 (Ras Initiative Chemistry Research Team, Frederick National …, 2025)
This is one part of the list. Shown are side measurements of this screen, not its main read-out; they come without a call.

Biological target: GTPase KRas (Homo sapiens) (UniProt P01116)
Experiment: Fragment capture on engineered cysteines, share of protein labelled (AID 2202238)
Design: protein at 5 µM with 500 µM competing thiol for 1.5 h
Conditions: KRAS G12D cysteine mutants, disulfide tethering, MALDI-TOF labeling, stronger effect = higher value, fragment at 500 µM
[1] = measured here: G75C mutant labeling
[2] = measured here: H94C mutant labeling
[3] = measured here: I36C mutant labeling
[4] = measured here: L120C mutant labeling
[5] = measured here: M67C mutant labeling
[6] = measured here: M72C mutant labeling
[7] = measured here: N86C mutant labeling
[8] = measured here: P121C mutant labeling
[9] = measured here: S122C mutant labeling
[10] = measured here: S136C mutant labeling
[11] = measured here: G60C mutant labeling
[12] = measured here: N26C mutant labeling

Chain of UniProt P01116 (P01116 whole entry, looked up, the tested form may be a part): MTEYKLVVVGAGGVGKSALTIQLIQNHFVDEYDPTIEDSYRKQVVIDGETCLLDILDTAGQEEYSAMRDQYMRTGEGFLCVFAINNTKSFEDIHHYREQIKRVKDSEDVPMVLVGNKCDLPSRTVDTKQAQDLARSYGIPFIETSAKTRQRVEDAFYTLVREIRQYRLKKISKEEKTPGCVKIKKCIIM

SMILES | percent labeling [1] | percent labeling [2] | percent labeling [3] | percent labeling [4] | percent labeling [5] | percent labeling [6] | percent labeling [7] | percent labeling [8] | percent labeling [9] | percent labeling [10] | percent labeling [11] | percent labeling [12]
Cc1c(NC(=O)CCS)cnn1CC(C)(C)O | 9.4% | 26.7% | 30.3% | 26.3% | 28.2% | 15.1% | 23% | 31.5% | 36.2% | 49% |  | 
Cc1ccc(NC(=O)CCS)cc1N1C(=O)CNC1=O | 11.5% | 31.4% | 36.1% | 44.4% | 30% | 37.7% | 35.5% | 32.2% | 35.2% | 52.3% |  | 
O=C(NCCS)C1CCN(C(=O)C2CCCCC2)CC1 | 13.2% | 33.4% | 24.1% | 31.1% | 29.4% | 14.6% | 22.5% | 28.1% | 28.3% | 38.6% | 26.4% | 36.2%
O=C(CCS)N1CCn2c(CC3CC3)nnc2C1 | 7.9% | 24% | 33.8% | 20.5% | 27% | 12.7% | 12.9% | 28.7% | 30.4% | 44.6% |  | 
COc1cc[nH]c(=O)c1CNC(=O)CCS | 0% | 28.1% | 37.2% | 28.4% | 27.8% | 13.3% | 20.1% | 30.7% | 31.8% | 45% |  | 
Cc1ccn(C2CCN(C(=O)CCS)CC2)n1 | 15.1% | 33.1% | 32.1% | 33.8% | 29.9% | 18.9% | 18.1% | 32.8% | 31.9% | 51.8% |  | 
COC(=O)c1sc2c(c1Br)CN(C(=O)CCS)C2 | 15.4% | 14.5% | 18.2% | 9.2% | 11.3% | 36% | 10.4% | 12.1% | 0% | 15.2% |  | 
Cc1cccc(Oc2ccc(NC(=O)CCS)c(C)n2)c1C | 11.8% | 18% | 20.6% | 15% | 42.1% | 32.7% | 19.2% | 20.8% | 11.2% | 33.3% |  | 
COc1cccc(-n2cc(NC(=O)CCS)nn2)c1 | 3.9% | 17.9% | 13.7% | 13.2% | 10.9% | 57.9% | 3.5% | 15.4% | 10% | 22.3% |  | 
O=C(Cc1cccc(OCC(F)(F)F)c1)NCCS | 15.4% | 26.9% | 15.5% | 26.1% | 18.8% | 23.8% | 15.6% | 19% | 17.2% | 24.1% | 31.9% | 30.4%
Cc1cn(CC(=O)NCCS)nc1C(F)(F)F | 16.4% | 29.8% | 28.3% | 44.2% | 26.1% | 29.4% | 28% | 29.9% | 29.5% | 40.9% | 42% | 36.8%
O=C(NCCS)c1nn2c(c1Br)CCC2 | 27.2% | 34.8% | 23% | 41.2% | 32.9% | 71.2% | 29.5% | 26.2% | 27.6% | 39.5% | 35% | 41.7%
COc1ccccc1OCCC(=O)NCCS | 17.2% | 33.7% | 27% | 49.8% | 36.8% | 33% | 25.3% | 35.6% | 35.2% | 49.6% | 56.1% | 43.1%
CCc1[nH]cnc1C(=O)NCCS | 24.1% | 36% | 23.2% | 36.8% | 29.9% | 31.5% | 30.9% | 27.1% | 29.1% | 36.1% | 28.9% | 33.2%
Cc1cc(C(=O)NCCS)nc(C(F)(F)F)n1 | 19.9% | 30.5% | 20.2% | 33.9% | 26.9% | 31% | 16.2% | 26.3% | 25.9% | 45.5% | 34.1% | 34.6%
O=C(NCCS)c1c(F)cccc1-n1cccn1 | 13.7% | 37.7% | 30.2% | 35.1% | 31.1% | 28% | 32.5% | 38.8% | 30.1% | 43.4% | 33.6% | 32.4%
O=C(NCCS)C1(c2nccc3ccccc23)CC1 | 18% | 39.6% | 28.9% | 40.1% | 46.2% | 27.2% | 22.1% | 29.7% | 28.9% | 68.8% | 50.1% | 38.3%
CCn1c2ccccc2c2cc(CN(C)C(=O)CCS)ccc21 | 16% | 25.8% | 19.8% | 11.8% | 18.4% | 42.1% | 19.2% | 15% | 7.7% | 28% |  | 
O=C(NCCS)[C@@H]1CCCC[C@@H]1C(F)(F)F | 17.6% | 27.7% | 21.9% | 28.9% | 25.4% | 24.2% | 46.4% | 28.8% | 33.6% | 38.3% | 49.1% | 35.8%
O=C(CCS)NC1CC12CCc1cc(Br)ccc12 (stereo not given) | 13.9% | 27.7% | 23.2% | 10.6% | 15.2% | 32% | 17.1% | 16.5% | 7.4% | 31.7% |  | 
CC(C)(C)Cn1c(=O)[nH]c2c(C(=O)NCCS)cccc21 | 14% | 15.6% | 12.1% | 15.6% | 13% | 28.4% | 11.3% | 14.1% | 9.8% | 20.4% | 22.2% | 35.2%
Cc1cnn(-c2cccc(C(=O)NCCS)c2)c1 | 11.2% | 15.7% | 12.1% | 15.6% | 10.1% | 37.3% | 12.8% | 12.5% | 10.4% | 25.8% | 22.3% | 36.8%
CCN(CC(=O)Nc1ccccc1C(F)(F)F)C(=O)CCS | 11.3% | 30.7% | 26.9% | 35.8% | 33.5% | 28.1% | 23.8% | 28.2% | 31.3% | 46.6% |  | 
O=C(CCS)NCC1CN(C2CC2)C(=O)O1 (stereo not given) | 8.4% | 29.9% | 39.3% | 23.3% | 39.1% | 15.4% | 14.8% | 39.9% | 38.9% | 50.2% |  | 

SMILES | percent labeling [1] | percent labeling [2] | percent labeling [3] | percent labeling [4] | percent labeling [5] | percent labeling [6] | percent labeling [7] | percent labeling [8] | percent labeling [9] | percent labeling [10] | percent labeling [11] | percent labeling [12]
CCOc1cc(C#N)cc(Br)c1OCC(=O)NCCS | 10.5% | 12.7% | 6.5% | 8.5% | 8.1% | 20% | 7% | 7.3% | 5% | 16.6% | 26.2% | 20.5%
Cn1ncc2nc(C(F)F)c(NC(=O)CCS)cc21 | 17.9% | 32.4% | 44.3% | 27.8% | 35.5% | 41.4% | 38.1% | 27.6% | 30.5% | 52.2% |  | 
O=C(NCCS)C1CN(C(=O)C2CCCCC2)C1 | 14.1% | 27.7% | 24.5% | 38.4% | 26.4% | 15.6% | 21% | 30.7% | 30.6% | 42.1% | 25.2% | 33.7%
Cc1noc(CC2(NC(=O)CCS)CC2)n1 | 0% | 21.9% | 33.4% | 14.4% | 27.4% | 8.8% | 18.2% | 30.4% | 32% | 40.4% |  | 
O=C(NCCS)c1cccc(Nc2ncnc3ccccc23)c1 | 8% | 9.8% | 9% | 8% | 11.1% | 23.1% | 8.1% | 7.3% | 4.2% | 13.1% | 12.7% | 33.7%
O=C(CCS)NCc1ccnn1C1CCCCC1 | 21.4% | 40.1% | 35.1% | 27.2% | 38.4% | 26.7% | 25.9% | 35.7% | 37.6% | 57.2% |  | 
Cc1nc2cc(F)c(F)cc2n1CC(=O)NCCS | 21.5% | 36% | 36.7% | 47.7% | 36.1% | 56.8% | 29.8% | 30.5% | 28.1% | 40.6% | 48.3% | 45.5%
O=C(NCCS)C1CC12CCc1cc(Br)ccc12 (stereo not given) | 28.1% | 25.8% | 12.4% | 15.5% | 10.5% | 33.2% | 11.7% | 27.6% | 6% | 15.6% | 45.3% | 29.3%
Cn1nc(C(=O)NCCS)cc1-c1ccc(Cl)cc1 | 9.2% | 11.5% | 8.9% | 15.5% | 10.6% | 40.5% | 12% | 12% | 9.4% | 16.5% | 18.3% | 26.4%
CCn1cccc(CNC(=O)CCS)c1=O | 11.4% | 28% | 37.4% | 28.5% | 33.8% | 17.4% | 25.6% | 34.7% | 34.3% | 53.7% |  | 
COc1cc2c(cc1OC)CN(CC(=O)NCCS)CC2 | 20.7% | 36.9% | 36.7% | 52.6% | 37.7% | 35.2% | 23.1% | 30.9% | 23.7% | 47.6% | 44.8% | 41.4%
O=C(NCCS)C1CCN1C1CCCC1 (stereo not given) | 22.4% | 39.4% | 29.6% | 26.2% | 31.3% | 23.3% | 24.8% | 26% | 26.5% | 41.8% | 37.2% | 34.7%
CC1(C(=O)NCCS)CCCN(C(=O)c2ccccc2)C1 (stereo not given) | 16.4% | 44.7% | 30.5% | 37.2% | 43.3% | 35.9% | 28.9% | 35.5% | 35.5% | 56.1% | 38.9% | 38.7%
COc1cc(N2CCN(C(=O)CCS)CC2)ccc1O | 22% | 14.9% | 19.2% | 12.4% | 16.3% | 4.9% | 18.8% | 20.8% | 14.7% | 56.8% |  | 
COc1ccc2c(c1)CCC(C(=O)NCCS)C2 (stereo not given) | 12.7% | 18.8% | 14.9% | 14.6% | 17.4% | 32% | 16.8% | 18.3% | 14.9% | 25.5% | 37.6% | 36.9%
N#Cc1cc2c([nH]c1=O)CCN(C(=O)CCS)C2 | 11.6% | 25.6% | 44.4% | 28.9% | 34.5% | 24.3% | 31.4% | 28.9% | 33.6% | 61.7% |  | 
COc1cc2ccccc2c(NC(=O)CCS)n1 | 17.3% | 20.1% | 15.1% | 11.8% | 8.4% | 54.6% | 14.8% | 13.7% | 7.9% | 33.9% |  | 
CCc1cc(OC)c(CC2(NC(=O)CCS)CC2)cc1OC | 11.7% | 27.6% | 25.1% | 14.6% | 26.1% | 27.3% | 19.7% | 20.5% | 16.5% | 42.6% |  | 
O=C(NCCS)C1CC=CCC1C(=O)NC1CC1 (stereo not given) | 6.9% | 24.3% | 14.4% | 30.3% | 16.7% | 11.1% | 19.4% | 25.8% | 22.3% | 29.7% | 21.3% | 21.9%
O=C(Nc1ccc(F)cc1)NC1CCN(C(=O)CCS)CC1 | 10.1% | 24.9% | 34.1% | 18.6% | 28.7% | 17.9% | 17.6% | 20.9% | 20.6% | 37.8% |  | 
CC1(CC2CCCN2C(=O)CCS)NC(=O)NC1=O (stereo not given) | 8.5% | 35.1% | 34.7% | 29.6% | 40.5% | 15.3% | 31.8% | 31.7% | 38.4% | 57.7% |  | 
O=C1CC(C(=O)NCCS)c2ccc(F)cc2N1 (stereo not given) | 19.6% | 40.7% | 32.6% | 48.6% | 35.6% | 39% | 28.6% | 33.3% | 34.7% | 44.7% | 50.5% | 44.3%
COc1ccc(CCC(=O)NCCS)cc1Cl | 16.8% | 21.5% | 23.6% | 27.6% | 24.7% | 37.3% | 17.3% | 25.5% | 20.7% | 31.6% | 50.4% | 35.2%
